This passage reports binding signal results from publication PMC6212790.

The other results are listed elsewhere or left out. At the low end of the ranking the order means little.

This assay has as its target T1, GST-Rok (full length) (UniProt O34857).
T1 sequence: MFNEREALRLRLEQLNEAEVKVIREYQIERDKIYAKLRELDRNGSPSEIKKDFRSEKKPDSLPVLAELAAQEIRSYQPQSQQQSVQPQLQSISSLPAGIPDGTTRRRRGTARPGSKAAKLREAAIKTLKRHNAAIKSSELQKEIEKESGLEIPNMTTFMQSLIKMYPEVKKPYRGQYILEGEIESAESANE
The experiment in a line: protein binding microarray.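 Note: rank score from −0.5 (least bound) to 0.5 (best bound).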 The settings on record: Rok is a gene silencer of Bacillus subtilis; high values mean tight binding; most listed sequences are background and not binding sites; double strand, one strand shown.
Regarding GATCCCAA, the binding signal is -0.147 E-score. Turning to TCTACGAA, the binding signal was 0.0194 E-score.

On to CCCCGCTC, for which the binding signal is -0.178 E-score. For the sequence GAGCTGCC, the binding signal was -0.161 E-score. As for AGGCACCC, the figure is -0.224 E-score; as for CATTGTCG, -0.0271 E-score. As for CACTCCGA, the figure is -0.251 E-score; as for AGCGACCC, -0.194 E-score; as for ACCGAGGG, -0.334 E-score. For GGGCAGAC, the binding signal is -0.267 E-score. The value for TCCCCGAA was -0.185 E-score; that for GTGGATTA was -0.000195 E-score; that for CCGGATCA was -0.0925 E-score. As for GTTCCTGA, the figure is -0.0254 E-score.

Consider CTATTCCC, for which the binding signal is -0.184 E-score. In the case of AACCTTGT, the binding signal is -0.0582 E-score. As for ATCGCGTA, the figure is 0.182 E-score; as for AAATAGCG, 0.0843 E-score. The value for AGTGTGAG was 0.0596 E-score; that for ATGCACAG was 0.011 E-score. The value for ACGAGCTG was -0.171 E-score. Turning to GCATGGTA, the binding signal came to 0.105 E-score. The sequence CCGGTAAC yielded a binding signal of 0.0335 E-score.

Sequence TCCACTCA yielded a binding signal of 0.0497 E-score. For TCCTCCCA, the binding signal was -0.224 E-score.

Take GCACTCTA: the binding signal was -0.0891 E-score. The sequence ACAGTGTA returned a binding signal of 0.268 E-score. Regarding GCCACACC, the binding signal is -0.0414 E-score. As for CGACACGC, the figure is -0.197 E-score. The value for ACGATATA was 0.298 E-score; that for GTGCTCAA was -0.122 E-score. AACGCCAC: the binding signal is -0.204 E-score. The value for ACCCAAAG was -0.15 E-score; that for ATTCCGTC was -0.0689 E-score; that for CTCCTTCA was -0.246 E-score. GGACCGAC: the binding signal was -0.163 E-score. Take AGTCCCCC: the binding signal is -0.367 E-score.

As for ACATCCAA, the binding signal worked out at 0.0811 E-score. Turning to CACAGGCA, the binding signal is -0.142 E-score. With AGCAAGGC, the binding signal was -0.157 E-score.

Regarding GCATCCTA, the binding signal was -0.0197 E-score. Regarding GAAATAGA, the binding signal was determined as 0.221 E-score. On to GTCTTAGA, for which the binding signal was -0.0385 E-score.

Regarding GGGCCAAA, the binding signal is 0.0182 E-score. As for GAAAGTCA, the figure is -0.0575 E-score.

As for CGAGACCA, the binding signal is -0.177 E-score. With ATCACCGA, the binding signal is -0.0834 E-score. As for GCCCGGCA, the figure is -0.126 E-score. As for AGCTTTAG, the figure is 0.0381 E-score; as for CTACCGCA, 0.267 E-score; as for CATAGCAA, 0.165 E-score.

In the case of GTTAACCA, the binding signal was -0.0326 E-score.

With AGTCCAGC, the binding signal is -0.258 E-score. The value for ATTTGGGG was -0.368 E-score; that for CCCTCGCC was -0.381 E-score. As for GTTTTCGA, the figure is 0.0689 E-score; as for CATTCCGG, 0.131 E-score; as for ATGATCAT, 0.176 E-score. The value for CATCGTAA was 0.169 E-score; that for GGTGGTAA was 0.118 E-score; that for ACTCAAAC was 0.0822 E-score.

CGATACAA: the binding signal came to 0.185 E-score. The value for CTGAGTTA was 0.111 E-score; that for ATCCAGTA was 0.261 E-score. The value for CTAATCAA was 0.165 E-score; that for GTACGAAC was 0.106 E-score; that for AGTATCTG was 0.189 E-score. Regarding CAGATAGG, the binding signal came to 0.0421 E-score. With ATCCACGG, the binding signal was -0.0964 E-score.

For the sequence CTATAATC, the binding signal came out at 0.279 E-score. As for GTTGGCGA, the figure is -0.0273 E-score. Consider ACACGTAA, for which the binding signal is 0.168 E-score. As for AGAGGAGA, the binding signal was -0.0587 E-score. For the sequence GCGTCACC, the binding signal was -0.305 E-score.

GCCTAGGC: the binding signal was -0.254 E-score. The value for CAGCATAC was 0.0509 E-score. As to GCGGCTCC, the binding signal is -0.4 E-score. The value for CGCTTTCA was -0.0495 E-score; that for CTCGAACC was -0.189 E-score. Consider GCCGGTAA, for which the binding signal is -0.0809 E-score. As for AAGGAGAC, the binding signal was -0.306 E-score. The value for AGCAGTAT was 0.015 E-score.

AAACGGCT came in with a binding signal of 0.00482 E-score. Turning to AAGCCTCT, the binding signal was -0.124 E-score. The value for ACGACTCG was -0.0329 E-score; that for GCTGGTGA was -0.0724 E-score; that for CCGTACCG was -0.185 E-score. ATGTGATG: the binding signal is 0.0247 E-score. As for CTCGCGCA, the binding signal was determined as 0.00625 E-score. Consider AAGCCACG, for which the binding signal is -0.301 E-score.

In the case of AGCGACAA, the binding signal is -0.163 E-score.

On to AGTTAAGA, for which the binding signal is -0.036 E-score.

On to AACAATCG, for which the binding signal was found to be 0.0545 E-score. On to GGGCCTAC, for which the binding signal was -0.142 E-score.

For the sequence TCCGTTCA, the binding signal is -0.167 E-score.

For the sequence GCCTCAGA, the binding signal is -0.24 E-score. Consider AGGCTAAA, for which the binding signal is -0.137 E-score. As for ACCTTAAC, the figure is -0.0118 E-score; as for CATGATCC, 0.0194 E-score; as for TTAGTCAA, 0.25 E-score.

On to AAACGTGT, for which the binding signal was 0.029 E-score. Take CCCACTGA: the binding signal is -0.229 E-score. As for GGGCTTAA, the figure is -0.193 E-score. GTCTCGCA: the binding signal was -0.158 E-score. AGGTTTGC showed a binding signal of 0.121 E-score. The value for ATTAGAAT was 0.148 E-score. For the sequence CACCACCC, the binding signal is -0.185 E-score. Sequence ATTAAAGA showed a binding signal of 0.0226 E-score. Consider CTGGAAGA, for which the binding signal amounted to 0.0235 E-score.

Turning to CGGAGCTA, the binding signal was -0.0955 E-score. As for ATTACGAG, the figure is 0.154 E-score. As for AATTGCGA, the figure is 0.175 E-score; as for CTGTGCGC, -0.0561 E-score; as for CTGAAGAA, -0.11 E-score. The value for AATGTCTG was -0.0157 E-score; that for CCCCCACA was -0.345 E-score; that for AACTTGAT was 0.0397 E-score.

As for CCCGAAAG, the binding signal was -0.246 E-score. Regarding GCCATCCC, the binding signal was -0.379 E-score. As for AATGCCCA, the figure is -0.209 E-score; as for CCGATGCC, -0.277 E-score. As for GGTTATGA, the figure is -0.21 E-score.

Consider ACGCCTTC, for which the binding signal was -0.0924 E-score.

For CCCCGGGC, the binding signal is -0.436 E-score.

Regarding ATTGAGAA, the binding signal turned out to be 0.109 E-score.

In turn, AGTTATAG registered a binding signal of 0.316 E-score. As to GCCTGCGC, the binding signal is -0.313 E-score.

In the case of AGCCGTTG, the binding signal is -0.208 E-score. As to AATGGCTC, the binding signal was -0.205 E-score. As for ATAACCAC, the figure is 0.156 E-score; as for CCTGGTCC, -0.408 E-score; as for AACCCCGT, -0.353 E-score. As to ATTCGGAC, the binding signal is -0.199 E-score. As for CCTCTTGA, the figure is -0.196 E-score; as for CATCCGCA, -0.1 E-score; as for GACATAAC, 0.176 E-score. The value for ATATGAGG was -0.0409 E-score; that for CAGGGACC was -0.269 E-score; that for CCGGCCTA was -0.151 E-score. The value for CAAACGTC was -0.0431 E-score; that for AAACCCCA was -0.371 E-score. On to GGGGGCTA, for which the binding signal is -0.326 E-score. AGGATGCA registered a binding signal of 0.11 E-score. AAATGAGA: the binding signal was -0.0669 E-score. As for CTTAGAGC, the figure is -0.264 E-score; as for AGTTACGG, 0.148 E-score; as for CATGTGTC, 0.153 E-score. For the sequence AAGAAGGA, the binding signal is -0.152 E-score. As for CTGGCAGC, the figure is -0.209 E-score; as for AACCTTTC, -0.0613 E-score. With TTCTAGAA, the binding signal amounted to 0.27 E-score. For the sequence GTTACTGA, the binding signal was found to be 0.146 E-score. CTAACAGA yielded a binding signal of 0.305 E-score.

With GAGCGTAC, the binding signal was -0.222 E-score. For the sequence CAATAATC, the binding signal stood at 0.0735 E-score.

For the sequence AATGTCGG, the binding signal was -0.0846 E-score. The value for AAAAGACG was 0.152 E-score; that for GCTAGACA was 0.0674 E-score; that for ATTCCACC was -0.0807 E-score. With CCCGCTCA, the binding signal is -0.215 E-score. Regarding ATCCCGTG, the binding signal is -0.204 E-score. The value for GAACGTCC was -0.198 E-score. ACCCCTGA: the binding signal was -0.234 E-score. The value for AGAACATG was 0.223 E-score. Take GCTAGAAA: the binding signal was 0.37 E-score.

CTGAGTCC: the binding signal was -0.133 E-score. As for CCAAACGG, the figure is -0.0104 E-score; as for CCACCTAC, 0.011 E-score; as for AATCGAAG, 0.0698 E-score. Regarding CCAGACCG, the binding signal is -0.106 E-score. Consider GCAAGCAA, for which the binding signal is -0.286 E-score. As to CTATTCGC, the binding signal is -0.0046 E-score.
